Read counts are not given, so values of variants with three or more changes are uncertain.

Sequences and labels used below:
B1: LINE1-mini (parent)
chain: GGCAGAGCUCAACACAGCGUGGCAAAGUGGCUGUGGCUAGACUGCC

In this series the parent is B1. Description: self-cleavage, relative activity (ratio to wild type); higher = more cleavage; in vitro, sequencing; the parent is a self-cleaving ribozyme.
Regarding G2C G5C U9G C31G, the self-cleavage was found to be 0.05.
In the case of A12G C23U U28G U34C it was 0; in that of C3A A12C G21A, 0.28.
As to A6U G7U C10G A16U G17C C45U, the self-cleavage turned out to be 0.01.
Under G7C A14G C23A A24G U38A G40U stands 0.1; under G1U A12G U28C U34G U38G, 0; under C3G G27U U32C, 0.12.
Under G2C C8G A14G A25C G27C C45G stands 0.01; under C13G G33A U34C, 0.05.
Under C3G C23A C42G stands 0; under G27C U28A U43C C46U, 0.01; under U9C C18U G21U U43A C46U, 0.04.
For the variant A4U G19A U28C U38G, the self-cleavage came to 0.07.
In the case of G2A G29A U32G, the self-cleavage is 0.15.
In the case of U32C G40U C46U it was 0.06; in that of C18A A26U U28G G30U G33U C46U, 0.02; in that of C8U G22A G29A G33U C46G, 0.03.
In the case of G7C C8G G22C G30A G35U it was 0.06; in that of C3A C10U G17U, 0.12; in that of C8A G19C A26U U28C, 0.05.
Turning to G5A C18G G44A, the self-cleavage was determined as 0.04.
Take G1C A12C G29A U34A U38A C46G: the self-cleavage came to 0.
Under G5C U32G G33U C42A stands 0.03; under A12G C18A C23U U28A, 0.01; under G1C U34C G40U U43G C45A, 0.
Under A4C U9A G17U stands 0.15; under C8A A24U C37G, 0.14; under A6C U43A C45G, 0.07.
C3U C8A A24G G29U: the self-cleavage came to 0.42.
In the case of A14U G17C G35U it was 0.01.
Under A11G A24G G35U C42A stands 0; under G21C G30U C37U, 0.01; under C18G A39C C42U, 0.05.
In the case of C13U A16C G36U it was 0.56; in that of G2U A16G G21C A26U U32G, 0.01; in that of C10U C31U G44U, 0.02.
As for G2C C8G G17A C31U, the self-cleavage was 0.02.
In the case of G1A C15U G19U A25U G33A U43C, the self-cleavage stood at 0.26.
In the case of G2C G22A C31U it was 0.03; in that of G2C A26U U32A G36C A41C G44C, 0.02.
Under G7C U20C U34G stands 0.01; under A6C C13U A25U, 0.06; under A4G C8A G29A G33U, 0.08.
In the case of C3U G7U C10A C18U A25U G33A C37G it was 0.01; in that of G1U A14G G21C G33C U38A, 0.01.
Take A12C G17U A26C C42G C46U: the self-cleavage was 0.
Regarding A12U C37A C46G, the self-cleavage is 0.02.
Under U20G G29C U34A stands 0.36.
Regarding G19U C37A C45G, the self-cleavage is 0.03.
Turning to A16U G17C G22C, the self-cleavage came to 0.16.
As to C13U C31A C45A, the self-cleavage stood at 0.06.
Under C15A G21U A25G stands 0.07.
Regarding A12U U32C G44C C45U, the self-cleavage was found to be 0.02.
Under G7A A12U C23U C31A stands 0.05.
In the case of C13U A25U U32G A39C it was 0.03; in that of C23G G30A U32G U38G G44A C45G, 0.06.
Under A6C G19A G30U C46G stands 0.36; under A4C U28A U38G, 0.01; under C8A A24U A39U, 0.1.
As for C10U G17U A26C, the self-cleavage worked out at 0.71.
Under A6U C13U G30U stands 0.08.
In the case of C3G G5C G17C it was 0.02; in that of G5U C13G A24C, 0.05.
In the case of C18A A26G A41G it was 0.16; in that of A6G C31G C37A A39U, 0.07.
Turning to C23U G30A U34C C37A U38G, the self-cleavage was 0.01.
In the case of A4C C18A U34C it was 0.02; in that of C3G C31A U32G, 0.09; in that of G2C G5U C23U G40A, 0.04.
In the case of C10A C13U G17A G29C G40C it was 0.03; in that of G2C C23U G35A, 0.08; in that of G17A U20A A25U C46G, 0.05.
In the case of A11U C13U G19C, the self-cleavage came to 0.
In the case of G5C C8U A16U U20A G33A, the self-cleavage was 0.03.
In the case of U9A C31U C46U it was 0.03; in that of C3U A6C C8A C10A C13U U32G, 0.02.
With A12C A14U U28A G40U, the self-cleavage worked out at 0.01.
Regarding U34C G36U C45U, the self-cleavage stood at 0.05.
In the case of G5U C8G A12G G21A C23A A26G C42A C46G it was 0.11.
For the variant A6G A16U C18G C31A, the self-cleavage is 0.08.
Under G19C G29U C46U stands 1.19; under G1U G19C U32A G40A G44C, 0.
Under C37G U38A A41U stands 0.02; under G5C G17C G27U, 0.02.
In the case of A12C C18U U34G G36U it was 0.01.
In the case of A6U G21U A26G G36A, the self-cleavage was 0.02.
In the case of C10U U38C G44C it was 0.24; in that of C3A G21A G30A G40A C45G, 0.21; in that of A26C G36U C42A, 0.08.
Under G2C A14C U32A U43A stands 0.03; under G5U C31A U34G, 0.05; under A12U C15G C42G, 0.01.
Under U9G C15U C18U U20A U28G G35U C42A stands 0.02; under G1C C3A G7A C31U, 0.22; under G2U A11C G30A G33U U43C C46U, 0.01.
As to G19C U38C A39U, the self-cleavage came to 0.07.
In the case of A12G G19U A26U G33A it was 0.1.
With G21C G30U C37A U43A, the self-cleavage stood at 0.03.
As to G2A G5A G33A C37G, the self-cleavage was found to be 0.41.
Under A25U U28A G36U G44C stands 0.04; under G7U A11G G30C C31A U34A U38G, 0; under G5U C13A C18A G19C A25C, 0.01.
In the case of G2U A16G U20C it was 0.05; in that of A11C C13G A26U, 0.02.
With A4G G7A C13A G30A C31A G35C, the self-cleavage was determined as 0.16.
In the case of G1A C18A A25U C37A it was 0.13; in that of U20A G27U C31A, 0.33.
Under G2U G22A C31U stands 0.02; under A11G C13U C18G, 0.02.
With G1C G30U C45G, the self-cleavage came out at 0.05.
In the case of C23A C42A G44C it was 0.11.
Under C8G U9G G19U C31G stands 0.04; under U9G G36U G40U, 0.03; under A14C G22A U32C, 0.07.
Under G1A A6C C46U stands 0.24.
Turning to C13G C15G G17A, the self-cleavage worked out at 0.03.
In the case of G2A A41C G44U it was 0.16.
In the case of G21A A25U G29A A41G C42G it was 0.12.
Under G1A C3G C15G G19A G21A stands 0.09; under C10A G35U G44U, 0.02; under A16G G19C A41U, 0.3.
As for G5A A16C G33U U34A, the self-cleavage was 0.05.
In the case of C10A A12U G27C it was 0.06.
In the case of G1A C42A G44A it was 0.02.
In the case of C8G A25U C46G it was 0.1; in that of C8U C10G C13U C18G, 0.02.
Consider C10U C31A G40C G44A, for which the self-cleavage was 0.03.
Consider G5C C8G G29U, for which the self-cleavage worked out at 0.06.
Under G19C G21C C31A G35U stands 0.03; under G1C C3U A14U A24U A26G U28G, 0.01; under C3U U9G A11U U34G C42A, 0.01.
Regarding G27U G33U C37A A41U, the self-cleavage was 0.04.
Under C13U A14U C37U stands 0.04; under C15G U20C G21U A39C, 0.01.
In the case of G1U G5U A14C G17A it was 0.01.
Turning to A12G A14C C18A, the self-cleavage came to 0.05.
Under A14U C15G A24C G29C G40A stands 0.01.
In the case of C15U C23U G30A A39G it was 0.03.
Under A16C G17A C23U G33U G40U stands 0.02; under G7C U9A C10A, 0.02.
As to G22A G30A U32A U38A, the self-cleavage turned out to be 0.42.
As for C15U U32G G35A G36C G40C, the self-cleavage stood at 0.1.
In the case of C8A U9G G30A it was 0.03; in that of A12G C18A G30U, 0.08; in that of G27U G30U G44A, 0.14.
For the variant U20G A25U U28A G40A, the self-cleavage was found to be 0.24.
Under G7C A11G C18A G33U stands 0.01; under U28G C31U U38C, 0.24; under A6C C10A C31A A41U, 0.02.
In the case of C23G G40C A41G it was 0.07.
In the case of G2C C8U A14U C15A G17A A24C G30C C42U it was 0.11; in that of G21C C23A A39C, 0.02.
As for G7C A25C G44C C46G, the self-cleavage amounted to 0.01.
Under C13U G21U G30C stands 0.08; under C13U G19U C23G G36A, 0.13; under A4G G7A G19U U34A, 0.32.
In the case of G5U U20A G22U it was 0.18.
In the case of A6C A12C C23A A26C it was 0.02; in that of C23U A26G C31U G36U, 0.05; in that of U9G C10G G29C G35C U38A, 0.01.
As to C3U C13A C23A G27U U32C C46A, the self-cleavage is 0.07.
Under U20C G21A G22C stands 0.2; under G2A G30U G33C U34G C37A, 0.02.
In the case of G2C A6G G21C, the self-cleavage was 0.04.
In the case of C10A C18U G19C A39C it was 0.03.
In the case of A11C G17U C18G U32G C42A it was 0.
On to C23A C31G G35A C45U, for which the self-cleavage amounted to 0.05.
